The list shows a part of the results. These are further read-outs of the screen, such as a control signal, another cell line or another target. No call is given for them.
Legend:
Assay in all cases: Primary Screen for Target Class Profiling of Small Molecule Inhibitors of Methyltransferases
[1] = molecular target: Glycine N-methyltransferase (Homo sapiens) (UniProt Q14749); conditions: purified enzyme, MTase-Glo SAH luminescence; measured here: GNMT inhibition; at 40 µM; stronger effect = lower value
Description: (§1) PI: Matthew D. Hall Ph.D. and Quinlin M. Hanson Ph.D.
(§2) National Center for Advancing Translational Sciences (NCATS)
(§3) National Institute of Health (NIH), Rockville, MD
(§4) Target class profiling (TCP) is a chemical biology approach amenable to investigating understudied biological targets. TCP is achieved by developing a generalizable assay platform and applying it to screen a curated set of compound libraries against representative members of a target class. Small molecule methyltransferases (SMMTase) are a subclass of methyltransferase that act on metabolites to modulate signaling pathways, metabolize xenobiotics, or balance the available methyl pool. We screened four curated libraries totaling 27,574 unique compounds against the SMMTases nicotinamide N-methyltransferase (NNMT), phenylethanolamine N-methyltransferase (PNMT), histamine N-methyltransferase (HNMT), glycine N-methyltransferase (GNMT), catechol O-methyltransferase (COMT), and guanidinoacetate N-methyltransferase (GAMT). The data generated by this TCP can be leveraged for informed tool molecule development. For example, in the associated publication we identified a chemotype of HNMT-selective inhibitors. Additionally, we identified a putative SMMTase-selective inhibitor with potential as a tool molecule for studying broader methyltransferase biology.
(§5) High-through put screening assays were developed at the National Center for Advancing Translational Science (NCATS) for the enzymes NNMT, PNMT, HNMT, GNMT, COMT, and GAMT. Enzymatic activity was measured as a function of SAM cofactor conversion using the MTase Glo kit (Promega) for all enzymes. All assays were performed in 1536-well format with substrates and SAM concentrations at KM values. Enzyme concentration and assay timing were optimized for 10-20% SAM conversion. Initial screening of 27,574 compounds was done as single-point assays using the highest compound concentration (40 uM). […] These compounds were replated in 11-point dose response and assayed against NNMT, PNMT, HNMT, GNMT, COMT, GAMT, and a counter-assay. The IC50 and efficacy (maximal response) values were determined for each dose-response curve. These values are also accounted for in the area under the curve (AUC) values.
(§6) PROTOCOL TABLE (as described by Inglese J, Shamu CE and Guy RK. 2007)
(§7) SEQUENCE No. (e.g., 1, 2, 3, etc.); […] (e.g., Cells, Incubation, Reagent, etc.); VALUE; DESCRIPTION.
(§8) 1; Reagent; 2 uL; SMMTase Enzyme (2x) in reaction buffer, columns 1- 48.
(§9) 2; Reagent; 1 uL; SAM (4x) in reaction buffer, columns 1-48.
(§10) 3; Controls; 23 nL; DMSO in column 4; sinefungin in DMSO (0 uM - 40 uM) in 7-point 1:2 dilution series (n = 2) in column 2.
(§11) 4; Compounds; 23 nL; Columns 5-48.
(§12) 5; Reagent; 1 uL; Substrate (4x) in reaction buffer, columns 2-48.
(§13) 6; Time; 20-30 min; Incubation.
(§14) 7; Reagent; 1 uL; MTase-Glo reagent (5X), columns 1-48.
(§15) 8; Time; 30 min; Incubation.
(§16) 9; Reagent; 5 uL; MTase-Glo Detection reagent, columns 1-48.
(§17) 10; Time; 30 min; Incubation, luminescence evolution.
(§18) 11; Detection; Luminescence; ViewLux uHTS Microplate Imager (PerkinElmer).
(§19) NOTES (numbers refer to Sequence numbers above)
(§20) 1, 2, 5. White Medium Binding Greiner 1536-well plates (Cat #789175-F, Greiner Bio-One, Monroe, NC); Reaction buffer: 50 mM Tris, pH 8.0, 3 mM MgCl2, 1 mM EDTA, 50 mM NaCl, 1 mM DTT, and 0.1 mg/mL BSA. Evaporation was prevented by covering assay plates with metal lids containing holes to allow gas diffusion.
(§21) 1. Six SMMTase were profiled: HNMT, GNMT, PNMT, COMT, NNMT, GAMT
(§22) 5. The corresponding substrate was used for each enzyme: HNMT - 5.3 uM Histamine; GNMT - >500 uM Glycine; PNMT - 16.2 uM Norephinephrine; COMT - 13.7 uM Norephinephrine; NNMT - 3.8 uM Nicotinamide; GAMT - 2.5 uM Guanidinoacetate.6, 8, 10. Room temperature
(§23) 6. Final reaction conditions: 10 nM COMT, 5 uM SAM, 15 uM norepinephrine, 50 mM Tris, pH 8.0, 3 mM MgCl2, 1 mM EDTA, 50 mM NaCl, 1 mM DTT, and 0.1 mg/mL BSA; refer to tables 2 and S1 for specific timing.
8. […]

[2] = molecular target: Guanidinoacetate N-methyltransferase (Homo sapiens) (UniProt Q14353); conditions: purified enzyme, MTase-Glo SAH luminescence; measured here: GAMT inhibition; at 40 µM; stronger effect = lower value
Description: as §1, §2, §3, §4, §5, §6, §7, §8, §9, §10, §11, §12, §13, §14, §15, §16, §17, §18, §19, §20, §21, §22, §23
8. […]

[3] = molecular target: Histamine N-methyltransferase (Homo sapiens) (UniProt P50135); conditions: purified enzyme, MTase-Glo SAH luminescence; measured here: HNMT inhibition; at 40 µM; stronger effect = lower value
Description: as §1, §2, §3, §4, §5, §6, §7, §8, §9, §10, §11, §12, §13, §14, §15, §16, §17, §18, §19, §20, §21, §22, §23
8. […]

[4] = molecular target: Nicotinamide N-methyltransferase (Homo sapiens) (UniProt P40261); conditions: purified enzyme, MTase-Glo SAH luminescence; measured here: NNMT inhibition; at 40 µM; stronger effect = lower value
Description: as §1, §2, §3, §4, §5, §6, §7, §8, §9, §10, §11, §12, §13, §14, §15, §16, §17, §18, §19, §20, §21, §22, §23
8. […]

[5] = molecular target: Phenylethanolamine N-methyltransferase (Homo sapiens) (UniProt P11086); conditions: purified enzyme, MTase-Glo SAH luminescence; measured here: PNMT inhibition; at 40 µM; stronger effect = lower value
Description: as §1, §2, §3, §4, §5, §6, §7, §8, §9, §10, §11, §12, §13, §14, §15, §16, §17, §18, §19, §20, §21, §22, §23
8. […]
On the % scale 0 is the no-effect control and ±100 the full control effect.

| SMILES | activity change, negative = inhibition [1] | activity change, negative = inhibition [2] | activity change, negative = inhibition [3] | activity change, negative = inhibition [4] | activity change, negative = inhibition [5] |
| --- | --- | --- | --- | --- | --- |
| C[C@]1(O)CC[C@@H]2C(C(=O)O)=CO[C@@H](O[C@@H]3O[C@H](COC(=O)/C=C/c4ccc(O)c(O)c4)[C@@H](O)[C@H](O)[C@H]3O)[C@@H]21 | 0.631% | 7.61% | 10.9% | -6.28% | 4.68% |
| CCOc1ccc(CN2CCC(c3nnc(Cn4cncn4)n3C)CC2)cn1 | -0.873% | 0.499% | 2.25% | 0.876% | 3.24% |
| O=C(CCc1nnc2n(Cc3ccc(F)cc3)c(=O)c3ccccc3n12)NCCC1=CCCCC1 | -7.46% | 0% | -3.72% | -16.5% | -4.46% |
| CC1CCN(C(=O)Cn2c(=O)oc3cc(S(=O)(=O)N4CCCCC4C)ccc32)CC1 (stereo not drawn) | 16.4% | 0% | 9.46% | 2.64% | 3.89% |
| Fc1cccc(/C=N/N=C/c2cccc(F)c2)c1 | 1.12% | 4.92% | 3.03% | -8.96% | 0.64% |
| Cc1ccc(Cn2c(=O)c3ccccc3n3c(CCC(=O)N4CCc5ccccc5C4)nnc23)cc1 | -7.49% | 0.958% | 0.348% | -5.17% | 2.02% |
| Nc1nc(Nc2ccc(S(N)(=O)=O)cc2)n(C(=S)Nc2c(F)cccc2F)n1 | 1.5% | 4.66% | 13.5% | -5.72% | 5.91% |
| COCCN1CC(CO)C2(CCN(C(=O)Cc3c(C)noc3C)CC2)C1 (stereo not drawn) | -1.67% | -3.53% | 1.57% | -8.66% | 12.2% |
| O=C(Cn1nc2n(CCc3ccccc3)c(=O)c3ccccc3n2c1=O)Nc1cccc(F)c1 | 6.37% | 1.15% | 6.51% | 6.56% | 6.32% |
| CC1(C(=O)NCc2ccccc2)Cn2nc(-c3ccccc3)cc2C(=O)N1c1ccc(F)cc1 (stereo not drawn) | -0.875% | 0% | 2.35% | -1.18% | -2.65% |
| O=C(NCc1ccc2c(c1)OCO2)c1ccc2c(=O)nc3c(-c4cccc(F)c4)n[nH]n3c2c1 | -7.17% | 4.45% | -2.45% | -2.9% | -11.6% |
| CC1CCN(S(=O)(=O)c2ccc3c(c2)oc(=O)n3CC(=O)N2CCC(N3CCCCC3)CC2)CC1 | -2.59% | 5.8% | -12.6% | 8.5% | -5.9% |
| COc1cccc(NC(=O)Cn2c(=O)oc3cc(S(=O)(=O)NC4CCCCC4)ccc32)c1 | -3.2% | 3.54% | 0.15% | 5.47% | -25% |
| CC1CCCC(SCC(O)C(=O)O)CC(=O)c2c(O)cc(O)cc2CC(=O)O1 (stereo not drawn) | 0% | -1.78% | -3.9% | -12.3% | 3.45% |
| Cc1ccccc1Sc1ccc(/C=C2\SC(=S)NC2=O)cc1[N+](=O)[O-] |  | -55.8% |  | -95.5% | -34.5% |
| Cc1cc2c(cc3n2CC(C)(C(=O)NC2CCCCC2)N(Cc2cccc(Cl)c2)C3=O)o1 (stereo not drawn) | 3.01% | 4.5% | 6.87% | 2.92% | 2.63% |
| CN1CCN(c2nc3cc(C(F)(F)F)ccc3n3cccc23)CC1 | -7.28% | 10.7% | -5.22% | -15% | -4.34% |
| COc1cc2nccc(Oc3ccc(NC(=O)C4(C(=O)Nc5ccc(F)cc5)CC4)cc3)c2cc1OC | -9.17% | -1.78% | -1.6% | -25% | -1.63% |
| CCOC(=O)c1cc2n(n1)CC(C)(C(=O)NCCC(C)C)N(c1ccc(F)cc1)C2=O (stereo not drawn) | -4.61% | 3.01% | -2.63% | -1.76% | -3.75% |
| O=C(CSc1nnc2n(Cc3ccc(F)cc3)c(=O)c3ccccc3n12)Nc1ccc(F)cc1 | -2.45% | 4.69% | 4.37% | -0.372% | -0.061% |
| CC(C)Cn1c(=O)c2ccccc2n2c(=O)n(CC(=O)N3CCN(c4ccc(F)cc4)CC3)nc12 | -2.13% | 0.667% | 4.69% | 0.269% | -1.06% |
| Cc1cccc(-n2cc(CN(C)C(C)c3ccon3)c(-c3cccc(F)c3)n2)c1 (stereo not drawn) | -2.18% | 0.061% | 0.83% | 0.019% | 0.617% |
| CC(C)c1cc(C(=O)N2CC[C@@H](NC(=O)C3CC3)C2)n[nH]1 | -2.31% | 2.03% | -4.48% | -19.5% | -10.3% |
| CN(CCc1ccccn1)[C@H]1[C@@H]2OC[C@@H](O2)[C@@H](NCc2ccncc2)[C@@H]1O | -9.32% | -4.66% | -2.86% | -2.52% | -1.98% |
| CN1CCN(CCNC(=O)c2cc3n(n2)CC(C)(C(=O)NC2CCCCC2)N(C)C3=O)CC1 (stereo not drawn) | 4.84% | 0% | -0.804% | 6.35% | -0.34% |
| CCCNC(=O)c1cc2n(n1)CC(C)(C(=O)NC1CCCC1)N(C)C2=O (stereo not drawn) | 0.059% | 4.12% | -2.58% | 1.61% | 0.143% |
| CCCCN1C(=O)c2cc(C(=O)Nc3cccc(SC)c3)nn2CC1(C)C(=O)NC1CCCC1 (stereo not drawn) | 6.35% | 0.143% | -15.9% | 9.86% | 9.33% |
| CCCn1c(=O)c2c(ncn2C)n(CCC)c1=O | 5.82% | 16.9% | 11.7% | -0.011% | 4.47% |
| CCCn1c(=O)c2ccc(C(=O)NC3CCCC3)cc2n2c(=O)n(CC(=O)Nc3cccc(C)c3)nc12 | 0.251% | 3.47% | 1.34% | -0.537% | 1.23% |
| CC1(C)[C@H](Cc2cc(CC3CCCCC3)on2)C[C@@H]1NC1CCOCC1 | -5.03% | -5.7% | -18.3% | -36.1% | -6.28% |
